Experimental data from the supplement of paper PMC10126150.
Sequences with one replicate were seen in a single cluster, so their values are uncertain.

Test system: ATP
Experiment: switch fluorescence ratio, 500 uM ATP over buffer (Cy3 cluster intensity, sum of 5 cycles each) (fold (ratio)); higher = stronger signal-on switching upon ATP binding; sequences stand for … in TCGTCGGCAGCGTCAGATGTGTATAAGAGACAGTTTTTTTTTTTTTTTTTTTTTTTTT…TC
Details: aptamer strand: ATP DNA aptamer (quencher-CACCTGGGGGAGTATTGCGGAGGAAGG + anchor), 100 nM annealed; ATP concentration: 500 uM; one replicate
Outline: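 Cy3-labelled switching-strand clusters on a modified Illumina MiSeq flow-cell were annealed to 100 nM quencher-labelled ATP aptamer, imaged in selection buffer, then imaged after 15 min with 500 uM ATP at 22 °C. Five buffer/ATP cycles ran, with NaOH stripping and re-annealing between them. The fluorescence ratio is summed target-cycle over summed buffer-cycle Cy3 intensity per cluster, averaged per switch-domain sequence. Clusters outside 100-1000 RFU were excluded.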
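Further: ATP exposure 15 min at 22 °C before imaging.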

| Sequence | switch fluorescence ratio |
| --- | --- |
| TGGATATACT | 0.994 |
| CCGGGTCGTC | 1.02 |
| CAAGTACAGT | 1.19 |
| GTAGCGCATT | 1.08 |
| GTTGTGTCAC | 1.01 |
| AAATGTCTTA | 0.96 |
| GGGTAATGAT | 1.02 |
| GAGCTCAGCG | 0.994 |
| GCACCAACGT | 1.41 |
| GCTGTAGCAA | 1.35 |
| AACTCGCTCC | 1.1 |
| CGCCGACTGC | 1.1 |
| AACTGATCGG | 0.933 |
| TAGCATAGT | 1.64 |
| GCGTTAGTTC | 0.999 |
| GGCTTGAGCA | 1 |
| CGTGCGAAAA | 1.02 |
| CTAGGAAGG | 1.06 |
| AACAACACGA | 1.22 |
| TTGGGAGGTA | 1.08 |
| GGGGCGGACA | 1.03 |
| CAGGGGTGTA | 0.996 |

| Sequence | switch fluorescence ratio |
| --- | --- |
| ACTTCTGGTT | 1.01 |
| CACATGCATT | 1.05 |
| ATGCATTACG | 1.1 |
| GATTAAATCT | 1.01 |
| CACTTTCACT | 1.08 |
| GCTGGCGCCC | 0.992 |
| CCTCAAGCT | 5.18 |
| TCCGGTGGGG | 0.964 |
| TCACGATTAT | 1.06 |
| CCGACGGCTG | 1.54 |
| CCGGATAAT | 0.97 |
| CCAACAGGCG | 2.06 |
| CGAAATGATG | 0.983 |
| CAGGGCCGGG | 1.02 |
| TGCTGTATGG | 1.02 |
| AAGCGAAGTT | 0.993 |
| ATCGGATAGC | 1.04 |
| TAAGGAAGGC | 0.988 |
| TATGGCCGCT | 0.991 |
| GGCATTCCGG | 0.993 |
| CTAGGTCGGG | 0.955 |
| GTCACAACAA | 1.03 |

| Sequence | switch fluorescence ratio |
| --- | --- |
| AGGTTATGAT | 1.01 |
| TTCTGGAGTC | 1.2 |
| ATCCGCCAGG | 2.39 |
| AATAGCGCGT | 1.09 |
| CACTCGTGTC | 0.972 |
| ACAATTTTAG | 0.973 |
| TGATGCAATG | 1.63 |
| TTGTGGTTCG | 0.959 |
| TCGATGAGTA | 1.02 |
| CGACTGAGAC | 1.55 |
| CGTTCGTTTT | 1.23 |
| ATCCTCGTTC | 0.986 |
| AAAGTATTGC | 1.04 |
| ATGAGTAGGC | 1.13 |
| CAGACGGCGG | 0.998 |
| AGTTCACGG | 1.05 |
| AAGAGGCTGT | 1.01 |
| AATGTGAGTC | 0.992 |
| CGTTACATAG | 1.03 |
| CCGTGACGGG | 1.02 |
| GATCTGCAGG | 1.23 |
| GATGGGAGAT | 1.04 |

| Sequence | switch fluorescence ratio |
| --- | --- |
| GTTATTTCAG | 0.991 |
| TCTAGCACTT | 1.02 |
| GCCTAATCGA | 0.982 |
| CCGTAGCTAT | 2.31 |
| AAATCCAGTT | 0.998 |
| TGCTTGTATC | 1.02 |
| TTTAAGTTGA | 0.997 |
| GTTTGCTTGC | 1 |
| GTGGTAAGGT | 0.958 |
| GGCACCTTTC | 1.8 |
| CCAGATACCC | 1.16 |
| TCCTCAAGAT | 2.27 |
| CATTGGAAA | 1 |
| GCAAACGTTG | 1.02 |
| GGTGATGCT | 0.995 |
| TAGAGGAATT | 0.994 |
| AGAGATTTAC | 1.01 |
| GATTTCATTC | 0.966 |
| TAACCGTACG | 1.44 |
